Data as given in PMC4081100.
This is a selection; strong and weak results do not stand in their true shares. For some of these results: At the low end of the ranking, values are background and their order means little. Some of the results follow. For some of these results: The exact form of the protein is not confirmed.

Key:
Experiment in all cases: universal protein binding microarray (PBM)
Settings in all cases: transcription factors of Arabidopsis thaliana; high values mean tight binding; most listed sequences are background and not binding sites; double strand, one strand shown
GST-ANAC092(1-176) = target: T1, GST-ANAC092(1-176) (UniProt Q9FKA0)
T1 sequence: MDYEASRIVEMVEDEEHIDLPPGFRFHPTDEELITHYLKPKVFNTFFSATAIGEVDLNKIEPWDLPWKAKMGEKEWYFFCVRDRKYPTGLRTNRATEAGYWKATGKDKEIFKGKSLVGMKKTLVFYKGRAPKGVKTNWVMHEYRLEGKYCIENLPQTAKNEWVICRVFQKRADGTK

GST-NTL6(1-168) = GST-NTL6(1-168) (UniProt Q9SCK6)
GST-ANAC019 NAC domain = target: T2, GST-ANAC019 NAC domain (UniProt Q9C932)
T2 sequence: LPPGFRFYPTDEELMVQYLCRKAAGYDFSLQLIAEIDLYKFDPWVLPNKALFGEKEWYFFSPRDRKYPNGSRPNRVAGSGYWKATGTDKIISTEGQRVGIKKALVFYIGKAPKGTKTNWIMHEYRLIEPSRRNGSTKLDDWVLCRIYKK

GST-ANAC055(1-171) = target: T3, GST-ANAC055(1-171) (UniProt Q9LDY8)
T3 sequence: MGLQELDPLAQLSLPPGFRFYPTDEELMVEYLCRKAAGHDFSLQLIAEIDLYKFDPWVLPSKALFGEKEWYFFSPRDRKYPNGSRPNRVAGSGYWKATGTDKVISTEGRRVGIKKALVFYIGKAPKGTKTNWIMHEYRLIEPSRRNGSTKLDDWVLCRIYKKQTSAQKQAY

GST-ATAF1 NAC domain = target: T4, GST-ATAF1 NAC domain (UniProt Q39013)
T4 sequence: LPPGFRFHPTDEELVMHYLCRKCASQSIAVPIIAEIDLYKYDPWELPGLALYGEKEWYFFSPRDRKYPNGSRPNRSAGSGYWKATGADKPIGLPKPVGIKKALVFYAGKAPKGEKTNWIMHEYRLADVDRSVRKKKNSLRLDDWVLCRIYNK

[1] = target: T5, GST-ANAC092(1-285) full length (UniProt Q9FKA0)
T5 sequence: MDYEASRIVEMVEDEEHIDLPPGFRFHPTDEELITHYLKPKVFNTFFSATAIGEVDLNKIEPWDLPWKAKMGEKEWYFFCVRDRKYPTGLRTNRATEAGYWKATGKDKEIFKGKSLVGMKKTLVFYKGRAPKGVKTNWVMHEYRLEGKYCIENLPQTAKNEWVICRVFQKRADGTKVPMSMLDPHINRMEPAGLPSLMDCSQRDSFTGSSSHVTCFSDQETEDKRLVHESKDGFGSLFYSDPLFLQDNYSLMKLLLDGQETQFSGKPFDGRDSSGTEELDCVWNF

GST-NAP(1-166) = target: T6, GST-NAP(1-166) (UniProt O49255)
T6 sequence: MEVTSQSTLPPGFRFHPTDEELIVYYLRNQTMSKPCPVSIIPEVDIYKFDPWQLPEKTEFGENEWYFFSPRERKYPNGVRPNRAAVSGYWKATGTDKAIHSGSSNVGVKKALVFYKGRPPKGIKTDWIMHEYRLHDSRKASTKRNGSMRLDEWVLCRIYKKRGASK

GST-NST2(1-184) = target: T7, GST-NST2(1-184) (UniProt Q9M274)
T7 sequence: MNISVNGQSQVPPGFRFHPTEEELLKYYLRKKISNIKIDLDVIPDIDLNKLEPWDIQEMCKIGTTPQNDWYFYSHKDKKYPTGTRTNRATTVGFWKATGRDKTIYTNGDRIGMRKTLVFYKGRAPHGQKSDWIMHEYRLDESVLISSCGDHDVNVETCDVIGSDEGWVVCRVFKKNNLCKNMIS

GST-NTL8 NAC domain = target: T8, GST-NTL8 NAC domain (UniProt Q9XIN7)
T8 sequence: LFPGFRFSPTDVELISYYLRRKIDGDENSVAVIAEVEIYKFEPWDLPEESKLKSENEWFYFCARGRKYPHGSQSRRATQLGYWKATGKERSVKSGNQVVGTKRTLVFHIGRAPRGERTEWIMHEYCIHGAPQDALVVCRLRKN

GST-SND1(1-203) = target: T9, GST-SND1(1-203) (UniProt Q9LPI7)
T9 sequence: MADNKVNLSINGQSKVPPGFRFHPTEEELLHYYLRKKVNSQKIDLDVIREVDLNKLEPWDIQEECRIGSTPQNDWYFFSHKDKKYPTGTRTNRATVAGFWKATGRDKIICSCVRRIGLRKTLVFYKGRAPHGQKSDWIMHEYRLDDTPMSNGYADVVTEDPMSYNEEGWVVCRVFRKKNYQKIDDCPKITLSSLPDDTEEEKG

GST-VND3 NAC domain = target: T10, GST-VND3 NAC domain (UniProt Q9FH59)
T10 sequence: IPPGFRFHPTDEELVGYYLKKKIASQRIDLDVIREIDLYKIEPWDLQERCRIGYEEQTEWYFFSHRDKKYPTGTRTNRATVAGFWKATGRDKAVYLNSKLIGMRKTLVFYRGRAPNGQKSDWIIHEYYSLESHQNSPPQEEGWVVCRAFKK

GST-VND7 NAC domain = target: T11, GST-VND7 NAC domain (UniProt Q9C8W9)
T11 sequence: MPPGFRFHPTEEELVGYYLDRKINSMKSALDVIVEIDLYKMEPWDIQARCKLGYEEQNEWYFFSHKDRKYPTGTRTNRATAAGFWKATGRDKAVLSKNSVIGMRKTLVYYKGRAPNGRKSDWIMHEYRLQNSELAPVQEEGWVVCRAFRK

[2] = target: T12, GST-VOZ2 (Arabidopsis thaliana) (UniProt Q9SLB9)
T12 sequence: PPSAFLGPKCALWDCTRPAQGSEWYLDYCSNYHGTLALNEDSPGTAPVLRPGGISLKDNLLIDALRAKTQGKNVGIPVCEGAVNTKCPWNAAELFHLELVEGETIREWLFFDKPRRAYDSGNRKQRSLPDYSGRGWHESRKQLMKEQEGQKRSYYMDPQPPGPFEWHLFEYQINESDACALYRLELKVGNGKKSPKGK

GST-WRKY1(266-371) = GST-WRKY1(266-371) (UniProt Q9SI37)

Sequence | binding signal (GST-ANAC092(1-176)) [E-score] | binding signal (GST-NTL6(1-168)) [E-score] | binding signal (GST-ANAC019 NAC domain) [E-score] | binding signal (GST-ANAC055(1-171)) [E-score] | binding signal (GST-ATAF1 NAC domain) [E-score] | binding signal [1] [E-score] | binding signal (GST-NAP(1-166)) [E-score] | binding signal (GST-NST2(1-184)) [E-score] | binding signal (GST-NTL8 NAC domain) [E-score] | binding signal (GST-SND1(1-203)) [E-score] | binding signal (GST-VND3 NAC domain) [E-score] | binding signal (GST-VND7 NAC domain) [E-score] | binding signal [2] [E-score] | binding signal (GST-WRKY1(266-371)) [E-score]
GCCTTGAC | -0.0111 | -0.138 | 0.0054 | -0.103 | -0.121 | -0.0429 | -0.163 | -0.0948 | -0.0469 | -0.0649 | -0.117 | -0.102 | -0.106 | 0.457
GAGGTCAA | -0.0364 | -7e-05 | -0.0839 | 0.0235 | -0.00449 | 0.00153 | -0.0918 | -0.0437 | 0.0439 | -0.0172 | -0.0606 | 0.0285 | -0.0447 | 0.485
AGTCAGCC | 0.0127 | -0.0886 | -0.0171 | -0.162 | -0.0659 | -0.0636 | -0.138 | -0.109 | 0.00365 | -0.0851 | -0.0158 | -0.0591 | -0.0972 | 0.415
CCCGGTCA | -0.0942 | -0.184 | -0.0176 | -0.303 | -0.189 | -0.15 | -0.169 | -0.188 | -0.0758 | -0.212 | -0.248 | -0.155 | 0.0157 | 0.445
AAAGTCTT | -0.0801 | 0.0508 | 0.0181 | – | 0.0148 | -0.0725 | -0.138 | -0.00475 | 0.00468 | -0.0823 | 0.0477 | -0.00431 | -0.217 | 0.429
CGTTTGAC | 0.0427 | -0.0285 | -0.00283 | 0.05 | – | -0.0215 | – | – | 0.00259 | -0.0177 | 0.0304 | -0.0344 | 0.0149 | 0.476
CGAAGACC | -0.0859 | -0.0747 | 0.0286 | -0.183 | -0.177 | -0.13 | -0.0937 | -0.16 | 0.0247 | -0.143 | -0.145 | -0.0605 | 0.00257 | 0.436
AAAGTCAG | 0.1 | -0.08 | – | 0.0444 | – | 0.0202 | -0.176 | – | -0.0594 | -0.0765 | -0.00045 | -0.146 | -0.0935 | 0.461
AGGAAACT | 0.174 | – | 0.0277 | – | – | – | 0.0881 | 0.125 | 0.426 | 0.041 | 0.0144 | 0.131 | -0.0326 | -0.0336
GAGGGAAA | 0.11 | – | – | -0.0734 | 0.0327 | -0.0658 | – | -0.0367 | – | 0.0484 | 0.00198 | 0.0212 | -0.0477 | -0.11
GGTCAACC | – | -0.0992 | – | -0.0325 | – | – | -0.00538 | -0.159 | -0.0208 | -0.122 | -0.0416 | -0.0251 | -0.0584 | 0.491
AAGGAAGC | – | – | 0.0288 | 0.0894 | -0.0389 | 0.13 | 0.036 | – | – | 0.175 | -0.0874 | -0.0203 | -0.0141 | -0.167
GGGAAACC | – | 0.0435 | 0.0318 | -0.061 | -0.114 | 0.0329 | -0.0407 | -0.0787 | – | 0.00853 | -0.00445 | -0.0737 | -0.0731 | -0.0416
